Measured values: the supplement of paper PMC11417369
± gives the standard deviation of the averaged measurements. The list shows a part of the results.

tested on: PfAP2-EXP AP2 domain (GST-tagged); assay: gcPBM binding intensity (ln(normalized median fluorescence intensity)); higher = stronger DNA binding
In short: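 After 1 h on an Agilent 4 × 180k array of primer-extended double-stranded 36-bp intergenic genomic probes and negative controls, bound GST-tagged P. falciparum DNA-binding domains were detected with Alexa488 anti-GST antibody and scanned at 488 nm. The domains had been expressed in E. coli, and binding took place in 1× PBS with 1% milk, 0.2 mg/ml BSA, 0.5% salmon testes DNA and 0.03% Triton X-100. Binding intensity is the highest Masliner-normalised natural-log median intensity across replicate spots of either probe orientation.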

Row | Sequence | gcPBM binding intensity (ln)
1 | TATATTTATAGGTACACACACACATATAAATAAATA [CACACA_site6345] | 8.65 ± 0.37
2 | TTTATTAGTAATTATACACACATATAAAATGAATAA [CACACA_site6754] | 8.28 ± 0.45
3 | ATAAAATTATATTTTGCATGCAGGCCTTTTTCTTAA [TGCATGCA_site1030] | 9.94 ± 0.14
4 | AAAAAAAAAAAAAACACACACATATATATATATATA [CACACA_site1891] | 10.2 ± 0.3
5 | TTCCAAAAAGTTATTACACACATATGTGCACATATA [CACACA_site6465] | 8.84 ± 0.092
6 | TTCCAAACCTCATTATGGAAAATAAAAAAATAAAAA [XGTACX_negctrl_site17] | 8.39 ± 0.54
7 | AGAATATTATATTATGCATGCATATAGAAAAATATA [TGCATGCA_site302] | 9.75 ± 0.27
8 | ATAAAATATTTTTGAACATGCAGGTAAAAAATAAAA [TGCATGCA_site1019] | 8.97 ± 0.33
9 | TGTATAAGTATTAATACACACACAAAATAATAAAAA [CACACA_site9156] | 8.91 ± 0.35
10 | TACTTACATTATTTATTTATATAAAAAGTTAATTAT [XGTACX_negctrl_site433] | 8.26 ± 0.42
11 | ATAATTAACAAATACACACACACACCCCCACAAAAA [CACACA_site518] | 10.1 ± 0.33
12 | TATATATTTTTTTTTTGTACTCACAATATATGTATG [XGTACX_site8024] | 8.74 ± 0.5
13 | AAATTAAAATATAATACACACATAAAAAAAAAAAAA [CACACA_site4183] | 8.39 ± 0.61
14 | AGTATTCATAAAAATACACACATGGAAAAATAAACT [CACACA_site6796] | 8.96 ± 0.4
15 | TACATAATACATATAACACACACAATTATACATAAA [CACACA_site9060] | 8.69 ± 0.39
16 | ATAATTACAAAATAAACACACATATAGATTTATATG [CACACA_site6343] | 8.51 ± 0.25
17 | CACATATATATGTGTGCATGTTGTATTATATATTTA [TGCATGCA_site632] | 8.96 ± 0.27
18 | ATATAATTAAAATGCTCACACACATAAAAAAAAATT [CACACA_site2148] | 8.43 ± 0.55
19 | GTACATATATACATTACACACGGTTTGATTTAAAAA [CACACA_site3379] | 8.66 ± 0.29

Row | Sequence | gcPBM binding intensity (ln)
20 | ATTTTATTTTTTAAAGGTACAGTTACAGCTTATATA [XGTACX_site7513] | 8.45 ± 0.44
21 | TCTTTTAAAAAAAAAGGAGGAACATAAAAAGTAGAA [XGTACX_negctrl_site272] | 8.85 ± 0.47
22 | AACAAACACGGACACACACACACACTAGAATGATTA [CACACA_site5364] | 8.71 ± 0.51
23 | AAAAATTTAAGTGGGGGTACATTTTTTTAACACCTT [XGTACX_site1093] | 9.46 ± 0.48
24 | TAATATATTAACATGGGTACATATTATTTCATGTGT [XGTACX_site5985] | 8.4 ± 0.34
25 | ATATTTAAATGTAATACATGCAAATTTGAACATTTT [TGCATGCA_site736] | 9.04 ± 0.32
26 | AAAAAAAAAAAAATCACACATATGTATTTATATATA [CACACA_site5790] | 8.21 ± 0.46
27 | AATAAATAAGCAACATGTACATACAAATATATACAT [XGTACX_site8529] | 8.48 ± 0.35
28 | TTTAATTTTTTTAATTCACACATTATTCCATCCTTT [CACACA_site5480] | 8.6 ± 0.31
29 | ATCTAATAAAAATACACACACATATGATTTGTGAAT [CACACA_site1867] | 8.22 ± 0.45
30 | ATTTTCCATTGTGCTACACACAACGGTTCGCAATAA [CACACA_site2974] | 8.56 ± 0.34
31 | TAAAAAAAATAGTCAAGTACATAAGAAGGGAAGAAA [XGTACX_site8733] | 8.84 ± 0.45
32 | ACTAAAAGATATATAATTTCTTTCTTATTTATTTTT [CACACA_negctrl_site842] | 8.1 ± 0.35
33 | TTATTCATATTATCATGTACTTATATATATTGTCAT [XGTACX_site2231] | 8.59 ± 0.4
34 | TGTTTCCAAAAAAAAAAAAAAAAAAAAAAAAAAAAA [CACACA_negctrl_site358] | 7.96 ± 0.33
35 | AAAAAAACATGAAACACACACAAATATTTATTTATA [CACACA_site6967] | 8.52 ± 0.42
36 | TATTATATATATAAATGTACTTATTTTAATTCCCCT [XGTACX_site8638] | 8.52 ± 0.26
37 | TTTTGTTTATTATGATTCAAAATGATTTTATCTTTG [TGCATGCA_negctrl_site425] | 8.29 ± 0.46
38 | ATTACATACACGCGCACACACAAAAAAAAAAAAAAA [CACACA_site1334] | 8.59 ± 0.26

Row | Sequence | gcPBM binding intensity (ln)
39 | ATATATATATATATATGTACTTATATATAATATAGA [XGTACX_site3488] | 10.1 ± 0.47
40 | GTACTCTTCTCCAGACTGCACTATACGACTCGTACA [GTGCAC_site9770] | 9.2 ± 0.33
41 | TGGTATGTTTTACAAAGTACCCATCGATTCTTATGT [XGTACX_site2822] | 8.48 ± 0.35
42 | AAAAAAAAAAAAAGTACACACTTTTGCGTACATGTA [CACACA_site7449] | 8.41 ± 0.29
43 | AAAAAGTAGTAAAACAGTACAGTATTTATGCCTATT [XGTACX_site6434] | 8.63 ± 0.61
44 | AATATATTTTTCTACCGTACATAATAAAATATATAT [XGTACX_site1777] | 8.61 ± 0.37
45 | TATTTATTTATTTATTGTACATAAGTATATATTATA [XGTACX_site6566] | 8.56 ± 0.39
46 | GAACCACTAAAATGAGCATGCTCATATTTACATATA [TGCATGCA_site1033] | 8.8 ± 0.36
47 | TTTTTTTTTTTTTTTGCATGTTGTTTAATGTATTGT [TGCATGCA_site772] | 8.38 ± 0.4
48 | TATCATTTTATTATTCTACACACTTATCTATAATTA [CACACA_site7894] | 8.6 ± 0.54
49 | AAATAAGAGCGTAGCACACACGCATTTTATAAATGT [CACACA_site741] | 8.68 ± 0.47
50 | TGTTGATGATATTACACACCCAATGAGAAAAGGAAT [CACACA_site2072] | 8.79 ± 0.41
51 | TAAAAATGTGGACACACACACATATTTATATTTAAT [CACACA_site6827] | 8.38 ± 0.29
52 | TTTTACAAAATAAAAATATAGAATACGGTAAATTAT [GTGCAC_negctrl_site40] | 8.64 ± 0.54
53 | TATTTATTACTATGTAAACACACATGCAATATATGT [CACACA_site8288] | 8.65 ± 0.38
54 | TGTAGTCTGGAGAAACGTACACAGTATCTGGTAACA [XGTACX_site4938] | 8.34 ± 0.36
55 | AAAGGGGATATATGAACACACAAAAAAAAAATATAT [CACACA_site2896] | 8.89 ± 0.6
56 | TATATTTTATAAAAAAGTACACATGAAAATGTATTT [XGTACX_site5889] | 8.48 ± 0.27
